{"source": "patent US20160347847A1", "about": "(AGENUS, published 2016)", "binders": {"B1": {"name": "pab1949-1 (antibody, human IgG1, kappa)", "heavy": "EVQLVESGGGLVQPGGSLKLSCAASGFTFSGSAMHWVRQASGKGLEWVGRIRSKANSYATAYAASVKGRFTISRDDSKNTAYLQMNSLKTEDTAVYYCTSGIYDSSGYDYWGQGTLVTVSSASTKGPSVFPLAPSSKSTSGGTAALGCLVKDYFPEPVTVSWNSGALTSGVHTFPAVLQSSGLYSLSSVVTVPSSSLGTQTYICNVNHKPSNTKVDKRV[human IgG1 Fc omitted]", "light": "not shown", "notes": "Human IgG1 antibody"}}, "key": {"human OX40 on cells": {"target": "T1, human OX40 on cells (human, UniProt P43489 29-277)", "T1 construct": "also called CD134; TNFRSF4", "T1 sequence": "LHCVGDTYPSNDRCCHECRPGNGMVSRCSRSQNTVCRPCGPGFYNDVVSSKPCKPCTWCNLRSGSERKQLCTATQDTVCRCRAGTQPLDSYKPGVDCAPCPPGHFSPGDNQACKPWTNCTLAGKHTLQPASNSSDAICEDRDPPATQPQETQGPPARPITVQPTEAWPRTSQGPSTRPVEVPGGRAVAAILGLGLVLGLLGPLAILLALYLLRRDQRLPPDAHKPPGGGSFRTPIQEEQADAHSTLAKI", "assay": "flow cytometry on human T cells activated with anti-CD3/anti-CD28 beads, CD4+ gate; pab1949-1 detected with anti-kappa IgG PE"}, "W58A": {"target": "T2, W58A", "T2 construct": "also called human OX40 alanine mutant W58A on 1624-5 cells", "T2 receptor chain": "T1 sequence with W58A", "assay": "flow cytometry on 1624-5 cells expressing the human OX40 alanine mutant; pab1949-1 at 2 and 0.5 µg/ml", "procedure": "(§1) This anti-OX40 antibody non-reactive cell population was subjected to a final, single-cell sorting step. […] The polyclonal anti-OX40 antibody (AF3388, R&D systems) conjugated with APC was diluted at 1:2000. Fc receptor block (1:200; BD Cat no. 553142) was added, and the samples were incubated for 20 minutes at 4° C. […] The cells were then washed and acquired using a flow cytometer (BD Biosciences)."}, "N60A": {"target": "T3, N60A", "T3 construct": "also called human OX40 alanine mutant N60A on 1624-5 cells", "T3 receptor chain": "T1 sequence with N60A", "assay": "flow cytometry on 1624-5 cells expressing the human OX40 alanine mutant; pab1949-1 at 2 and 0.5 µg/ml", "procedure": "as §1"}, "R62A": {"target": "T4, R62A", "T4 construct": "also called human OX40 alanine mutant R62A on 1624-5 cells", "T4 receptor chain": "T1 sequence with R62A", "assay": "flow cytometry on 1624-5 cells expressing the human OX40 alanine mutant; pab1949-1 at 2 and 0.5 µg/ml", "procedure": "as §1"}, "L88A": {"target": "T5, L88A", "T5 construct": "also called human OX40 alanine mutant L88A on 1624-5 cells", "T5 receptor chain": "T1 sequence with L88A", "assay": "flow cytometry on 1624-5 cells expressing the human OX40 alanine mutant; pab1949-1 at 2 and 0.5 µg/ml", "procedure": "as §1"}, "P99A": {"target": "T6, P99A", "T6 construct": "also called human OX40 alanine mutant P99A on 1624-5 cells", "T6 receptor chain": "T1 sequence with P99A", "assay": "flow cytometry on 1624-5 cells expressing the human OX40 alanine mutant; pab1949-1 at 2 and 0.5 µg/ml", "procedure": "as §1"}, "R80A": {"target": "T7, R80A", "T7 construct": "also called human OX40 alanine mutant R80A on 1624-5 cells", "T7 receptor chain": "T1 sequence with R80A", "assay": "flow cytometry on 1624-5 cells expressing the human OX40 alanine mutant; pab1949-1 at 2 and 0.5 µg/ml", "procedure": "as §1"}, "P93A": {"target": "T8, P93A", "T8 construct": "also called human OX40 alanine mutant P93A on 1624-5 cells", "T8 receptor chain": "T1 sequence with P93A", "assay": "flow cytometry on 1624-5 cells expressing the human OX40 alanine mutant; pab1949-1 at 2 and 0.5 µg/ml", "procedure": "as §1"}, "P115A": {"target": "T9, P115A", "T9 construct": "also called human OX40 alanine mutant P115A on 1624-5 cells", "T9 receptor chain": "T1 sequence with P115A", "assay": "flow cytometry on 1624-5 cells expressing the human OX40 alanine mutant; pab1949-1 at 2 and 0.5 µg/ml", "procedure": "as §1"}, "[1]": {"target": "T10, recombinant human OX40-Fc (R&D systems, 3388-OX) (human, UniProt P43489 29-216)", "T10 construct": "Bought protein; also called recombinant human OX40 antigen (OX40-Fc, R&D); not shown: Fc portion of the bought fusion protein", "T10 sequence": "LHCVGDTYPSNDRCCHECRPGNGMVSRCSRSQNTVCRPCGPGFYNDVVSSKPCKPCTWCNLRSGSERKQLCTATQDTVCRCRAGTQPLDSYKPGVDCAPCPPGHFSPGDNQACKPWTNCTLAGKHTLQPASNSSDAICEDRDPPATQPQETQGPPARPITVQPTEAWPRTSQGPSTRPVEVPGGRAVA", "assay": "Bio-layer interferometry (Octet), OX40-Fc on the sensor, antibody 50 to 0.78 nM in solution"}}, "note": "Substitutions are numbered along the chain they refer to.", "data": [{"binder": "B1", "values": [{"measurement": "EC50 (read off the curve)", "setting": "human OX40 on cells", "value": "~0.1", "unit": "µg/mL"}, {"measurement": "binding result", "setting": "W58A", "value": "no binding (tested: 2 µg/ml)"}, {"measurement": "binding result", "setting": "N60A", "value": "no binding (tested: 2 µg/ml)"}, {"measurement": "binding result", "setting": "R62A", "value": "no binding (tested: 2 µg/ml)"}, {"measurement": "binding result", "setting": "L88A", "value": "no binding (tested: 2 µg/ml)"}, {"measurement": "binding result", "setting": "P99A", "value": "no binding (tested: 2 µg/ml)"}, {"measurement": "binding result", "setting": "R80A", "value": "no binding (tested: 2 µg/ml)"}, {"measurement": "binding result", "setting": "P93A", "value": "no binding (tested: 2 µg/ml)"}, {"measurement": "binding result", "setting": "P115A", "value": "no binding (tested: 2 µg/ml)"}, {"measurement": "Kd", "setting": "[1]", "value": 0.11, "unit": "nM"}, {"measurement": "koff", "setting": "[1]", "value": 0.000126, "unit": "s⁻¹"}, {"measurement": "kon", "setting": "[1]", "value": "1.09e+06", "unit": "M⁻¹ s⁻¹"}]}]}
